Each structure is given as a SMILES string. Hit rate of the full screen: of about 150,000 compounds, about 540 (0.36%) showed an effect of 50% or more. The list shows a part of the results.

In this test the test system is Plasmodium falciparum. In words: Primary screen in NF54 nanoGlo assay, in single point, at 2uM, 72h; a lower Z score goes with more inhibition. In kind it is functional, Erythrocyte. As to conditions: timepoint 72 hour.
In general, % Inhibition refers to the relative decrease from the control value, in per cent. For the compound `c1cncc(C2CN(c3nccnc3N3CCCC3)C2)c1`, the “% Inhibition” value is on record as 3% and the Z score was -0.43.

In the case of `Cc1ncoc1C(=O)N1CCn2nc([C@@H](O)Cc3ccccc3)cc2C1`, the “% Inhibition” value is -4% and the Z score was 0.67.

In the case of `CN(CC#N)[C@H](c1ccc(Cl)cc1)C(F)(F)F`, the “% Inhibition” value is on record as -12% and the Z score was found to be 1.33.

Regarding `O=C(Nc1n[nH]c2c(Cl)cccc12)C1CCN(CC(F)F)CC1`, the “% Inhibition” value is given as -5% and the Z score was 0.67.

Regarding `COc1ccc(-n2nc(C(=O)N3CCN(C(C)=O)CC3)c(=O)n(Cc3cccc(F)c3)c2=O)cc1OC`, the “% Inhibition” value is -3% and the Z score came out at 0.47.

As for `CCn1c(=O)c(-c2ccc(C(=O)NCc3cc(OC)ccc3OC)cc2)nc2ccccc21`, the “% Inhibition” value is -12% and the Z score turned out to be 2.25.

For `CNS(=O)(=O)NC1CCCCC1OC` (stereo not drawn), the “% Inhibition” value came to 0% and the Z score is given as -0.01.

Turning to `COc1ccc(S(=O)(=O)Nc2ccc(N3CCC(N4CCCCC4)CC3)c(C(=O)O)c2)cc1`, the “% Inhibition” value is on record as -11% and the Z score is 1.08.

For `CN(C/C=C/c1ccccc1)C(=O)c1ccc2nc(-c3ccccc3)cn2c1`, the “% Inhibition” value was 2% and the Z score is -0.28.

In the case of `FC(F)(F)c1nnc2n1CCN(c1nnnn1-c1ccccc1)C2`, the “% Inhibition” value is -7% and the Z score was 0.63.

Turning to `Nc1c2c(-c3cccc(Cl)c3)nc(NCC3CC3)nc2nn1-c1ccccc1Cl`, the “% Inhibition” value is on record as -19% and the Z score is 2.45.

Consider `O=C(NCC1CCCCC1)C1CCCCC1`, for which the “% Inhibition” value was -14% and the Z score worked out at 1.36.

For `O=C(O)c1ccc(CN2CC(c3cccnc3)C2)cc1`, the “% Inhibition” value was -14% and the Z score came to 1.85.

With `Cc1cccc(C(=O)N2[C@H](C(=O)N3CCCC3)COC23CCN(C(=O)c2ccc(Cl)c(Cl)c2)CC3)c1`, the “% Inhibition” value is listed as -12% and the Z score came out at 1.2.

Take `COC[C@H]1COCCN1C(=O)c1cnc2n1CCCCC2`: the “% Inhibition” value is on record as 3% and the Z score is given as -0.61.

Consider `Cn1nc(-c2cnccn2)cc1CNS(=O)(=O)c1cccs1`, for which the “% Inhibition” value worked out at 14% and the Z score was -1.75.

Regarding `O=C(NCC(=O)c1cccc2ccccc12)c1cscn1`, the “% Inhibition” value is given as -9% and the Z score worked out at 1.32.

With `CN(CCc1cccc2ccccc12)CC1OCCO1`, the “% Inhibition” value is -11% and the Z score was determined as 1.48.

As to `CCCCNC(=O)c1cccnc1Oc1cccc(NS(=O)(=O)c2ccc(C)cc2)c1`, the “% Inhibition” value is listed as -7% and the Z score was 1.09.

`NC[C@H]1Cc2cccc(-c3cc(C4CC4)ncn3)c2O1`: the “% Inhibition” value is listed as 8% and the Z score is reported as -1.56.

As for `Cc1ccc(CN2CCN(Cc3c(C)nn(C(C)C)c3C)C[C@@H]2CCO)o1`, the “% Inhibition” value worked out at 0% and the Z score was found to be 0.02.

As to `Cc1cc(C(=O)O[C@@H](C)c2ccc(Cl)cn2)on1`, the “% Inhibition” value is listed as 3% and the Z score was -0.45.

Take `CN(C)C(C)(C)C(=O)NCc1ccccc1Cl`: the “% Inhibition” value came to 7% and the Z score is listed as -1.26.

`N#CCC(=O)Nc1ccccc1-c1ncc2n1CCCC2`: the “% Inhibition” value is on record as -4% and the Z score is on record as 0.4.

Turning to `Cc1oc(-c2cccc(Cl)c2)nc1CN1CCN(S(=O)(=O)c2ccccc2)CC1`, the “% Inhibition” value is given as -2% and the Z score amounted to 0.4.

For `NC(CC1CC1)=NOCC(=O)N1CCCCCCC1`, the “% Inhibition” value is listed as 0% and the Z score is -0.05.

For the compound `CCCOCC(=O)NC[C@@H]1CCCC[C@@H]1N1CCOCC1`, the “% Inhibition” value was -15% and the Z score came to 1.92.

On to `Cc1n[nH]cc1C1CCN(C(=O)C[C@H]2CCCN(C(=O)NCC(C)C)C2)CC1`, for which the “% Inhibition” value is reported as -3% and the Z score was 0.32.

Turning to `NS(=O)(=O)c1ccc(CNC(=O)c2[nH]nc3c2CCC3)cc1`, the “% Inhibition” value was -2% and the Z score was determined as 0.29.

Take `CCC(NS(=O)(=O)c1cc(C)cc(C)c1)[C@H]1C[C@H](O)C1` (stereo partly drawn): the “% Inhibition” value came out at 5% and the Z score was -1.05.

Take `Cc1n[nH]c(CN(C)CCn2ccnc2)c1Cl`: the “% Inhibition” value is given as 7% and the Z score is -1.16.

As for `CCOc1cccc(C2CC(c3cccc(OC)c3)=NC(C(C)C)N2)c1O` (stereo not drawn), the “% Inhibition” value was determined as 3% and the Z score is on record as -0.41.

Turning to `CCCCN(C)C(=O)[C@H]1CCCN(c2cccc3c2C(=O)N(c2cccc(Cl)c2)C3=O)C1`, the “% Inhibition” value is reported as -13% and the Z score is 1.69.

With `COc1ccc(-c2nc(NCc3ccco3)n(S(=O)(=O)c3ccccc3)n2)cc1`, the “% Inhibition” value is listed as -11% and the Z score is 1.36.

Regarding `Cc1oc2ccccc2c1C(=O)N1CCC(F)(c2ccccn2)CC1`, the “% Inhibition” value was -3% and the Z score was 0.54.

For `CNCC1CCCN1C(=O)C1CC1c1cc(F)ccc1F` (stereo not drawn), the “% Inhibition” value is -7% and the Z score stood at 0.66.

`COc1ccc(N2CCN(C(=O)c3ccc4nc(-c5ccc(OC)c(OC)c5)c(-c5ccc(OC)c(OC)c5)nc4c3)CC2)cc1`: the “% Inhibition” value came out at 10% and the Z score was -1.2.

On to `COc1ccc(C(=O)Nc2ccc(-c3ccc(N4CCCCC4)nn3)cc2)cc1`, for which the “% Inhibition” value is -11% and the Z score is 1.35.

`Cc1nc(CC(C)C)c(C(=O)N2CC[C@H](c3nncn3C)C2)s1`: the “% Inhibition” value was determined as 2% and the Z score is on record as -0.25.

For the compound `CCOc1ccc2c(C)c(C(=O)NCc3cc(C)no3)oc2c1OCC`, the “% Inhibition” value is recorded as 4% and the Z score is -0.69.

For the compound `CCOC1CC(NC(=O)N(C)C2CCN(C)C2=O)C12CCOCC2` (stereo not drawn), the “% Inhibition” value is given as -2% and the Z score was determined as 0.21.

`COc1ccc(Nc2nc(N3CCC(C(N)=O)CC3)nc3[nH]nnc23)cc1`: the “% Inhibition” value is reported as -12% and the Z score came out at 1.89.

In the case of `Clc1cc(Cn2nnnc2N2CCOCC2)cc2c1OCCO2`, the “% Inhibition” value is recorded as -13% and the Z score is 2.44.

For the compound `CCc1nnsc1C(=O)N[C@@H](C)CCc1cccn1C`, the “% Inhibition” value was -6% and the Z score turned out to be 0.85.

On to `C[C@H](NC(=O)c1ccoc1)c1ncnn1C`, for which the “% Inhibition” value stood at 11% and the Z score was -2.09.

As for `CC(C)c1cc(C(=O)N2CCC[C@@]3(CCCO3)CC2)n(C)n1`, the “% Inhibition” value is -15% and the Z score is 1.62.

In the case of `COc1ccccc1/C=C/c1cc(C)no1`, the “% Inhibition” value came out at 0% and the Z score was 0.01.

As to `CC(C)C(C)(C#N)NC(=O)CN1CCCC(O)C1` (stereo not drawn), the “% Inhibition” value is on record as -9% and the Z score was determined as 1.43.

Regarding `C[C@H](Oc1ccccc1-c1ccccc1)C(=O)N1CCc2ccccc2C1`, the “% Inhibition” value was -3% and the Z score stood at 0.36.

Turning to `O=C(NCc1ccc(-c2nnco2)cc1)c1ccccc1C1CCC1`, the “% Inhibition” value was -7% and the Z score turned out to be 0.81.

As for `COc1cc(OC)c(CN2CCN(CC3CC3)CC2)c(C(=O)O)c1`, the “% Inhibition” value was -2% and the Z score was found to be 0.26.

Take `Cn1ncnc1CCNC(=O)N[C@H](c1ccc(Cl)cc1)C1CCC1`: the “% Inhibition” value is listed as -7% and the Z score was 0.75.

Regarding `COc1ccc2c(c1)CCc1c(C(=O)N3CCC(Cc4nncn4CC4CC4)CC3)n[nH]c1-2`, the “% Inhibition” value is on record as -14% and the Z score came out at 1.64.

As for `Cc1nn(C)c2nc(N3CCCN4CCC[C@H]4C3)sc12`, the “% Inhibition” value is -5% and the Z score is reported as 0.79.

Source of the values: ChEMBL document CHEMBL4888484, “Replenishing the malaria drug discovery pipeline: Screening and hit evaluation of the MMV Hit Generation Library 1 (HGL1) against asexual blood stage Plasmodium falciparum ,using a nano luciferase reporter read-out” (2022).
